Measured values: the supplement of paper PMC4723716
± gives the uncertainty stated by the source. In all, about 9,900 compounds were measured (“viability index relative to DMSO control”: median about 1, lowest 2% from about 0.85 on). The list shows a part of the results.

system: Plasmodium falciparum NF54 stage V gametocytes; experiment: viability index relative to DMSO control (fraction); higher = less gametocyte killing; details: 2.5 µM, library set: Broad Institute DOS, incubation time: 72 h
How it was run: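 In 1,536-well plates, 10 µl of serum-free medium holding P. falciparum NF54 stage V gametocytes (0.75% gametocytemia, 1.25% hematocrit) received compound at 2.5 µM for 72 hr at 37°C in low oxygen. After one to two hours with 3 µl of 2.5 µM MitoTracker Red CMXRos containing 0.13% saponin, red particles of 20–70 µm2 were counted in a single field per well. Viability index is reported as the particle count over the plate mean of wells treated with solvent only.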

Structure (SMILES)	viability index
O=C(c1cccnc1)N1CC[C@@H]2[C@@H](CO)Nc3ccc(C4=CCCCC4)cc3[C@@H]21	1.06 ± 0.12
C[C@@H]1CN([C@H](C)CO)C(=O)c2cccc(NC(=O)Nc3ccc(C(F)(F)F)cc3)c2O[C@H]1CN(C)S(=O)(=O)c1cn(C)cn1	1.09 ± 0.03
COc1ccccc1CNC(=O)C[C@H]1C[C@H]2c3cc(NC(=O)C4CCC4)ccc3O[C@H]2[C@@H](CO)O1	1.1 ± 0.057
COc1ccc(S(=O)(=O)N(C)C[C@@H]2Oc3ccc(N(C)C)cc3CC(=O)N([C@@H](C)CO)C[C@H]2C)cc1	0.938 ± 0.06
C[C@@H]1CN([C@@H](C)CO)C(=O)c2cc(N(C)C)ccc2O[C@H]1CN(C)Cc1ccc(Oc2ccccc2)cc1	0.983 ± 0.035
COc1cccc(-c2ccc3c(c2)O[C@H](CN(C)Cc2cccnc2)[C@@H](C)CN([C@H](C)CO)S3(=O)=O)c1	0.94 ± 0.046
COc1ccc(-c2ccccc2[C@H]2[C@@H](C#N)N(C(=O)C3CCC3)[C@@H]2CO)cc1	1.21 ± 0.17
CN1C(=O)c2cc(NC(=O)c3cccc(F)c3)ccc2OC[C@@H]2O[C@H](CC(=O)NCc3ccccc3Cl)CC[C@@H]21	0.932 ± 0.042
COc1ccc(NC(=O)N(C)C[C@H]2Oc3c(NC(=O)CCCCCC(=O)Nc4ccccc4N)cccc3C(=O)N([C@H](C)CO)C[C@H]2C)cc1	0.62 ± 0.082
C[C@H]1CCc2cnnn2COCCNC1=O	0.919 ± 0.21
O=C(C[C@H]1CC[C@H]2[C@@H](COC[C@@H](O)CN2Cc2cc(F)ccc2F)O1)NCc1ccc(Oc2ccccc2)cc1	1.069 ± 0.0049
COc1ccc(S(=O)(=O)N(C)C[C@H]2Oc3c(cccc3N(C)C)C(=O)N([C@H](C)CO)C[C@@H]2C)cc1	0.979 ± 0.073
CCCNC(=O)N1C[C@@H]2N[C@H](C1)[C@H]2c1ccc(-c2ccc(OC)cc2)cc1	1.03 ± 0.046
COc1ccc(C(=O)N2C[C@H]3[C@@H](c4ccccc42)[C@H](CO)N3C(=O)NC(C)C)cc1	1.04 ± 0.14
CO[C@H]1CN(C)C(=O)c2cc(NC(=O)NC(C)C)ccc2OC[C@H](C)N(Cc2ccccc2)C[C@H]1C	1.01 ± 0.022
CO[C@@H]1CN(C)C(=O)c2cccc(C#N)c2OCC[C@@H]2CC[C@@H](OC)[C@@H](CN(C)C(=O)[C@H]1C)O2	1.09 ± 0.059
COc1cccc(C#Cc2ccc([C@@H]3[C@@H](CO)N4C(=O)CN(C(=O)Cc5cccnc5)C[C@H]34)cc2)c1	1.01 ± 0.084
CN(C)C(=O)c1cccc(-c2ccc([C@H]3[C@H](CO)N4C(=O)CN(C(=O)C5CCC5)C[C@@H]34)cc2)c1	1.01 ± 0.038
COCC#Cc1ccc([C@@H]2[C@H](CO)N3CCCCN(Cc4cccnc4)C[C@@H]23)cc1	1.03 ± 0.068
O=C(N[C@H]1C=C[C@@H](CC(=O)N2CCN(c3ccccc3)CC2)O[C@@H]1CO)c1ccccc1	1.1 ± 0.04
C/C=C/c1ccc([C@@H]2[C@H](CO)N(C(=O)C3CCC3)C23CN(C(=O)NC(C)C)C3)cc1	1.06 ± 0.014
COCC(=O)Nc1ccc2c(c1)OC[C@H](C)N(C)C[C@@H](C)[C@@H](OC)CN(C)C2=O	1.06 ± 0.093
O=C(Cc1cccnc1)N1CC(=O)N2[C@H](CO)[C@H](c3ccc(C#CC4CCCCC4)cc3)[C@@H]2C1	1.03 ± 0.036
CC(C)(C)[S@](=O)N1Cc2cc(C(=O)N3CCc4ccccc4C3)nc(-c3cccc(-c4cncnc4)c3)c2[C@@H]1CCO	1.05 ± 0.076

Structure (SMILES)	viability index
CO[C@@H]1CN(C)C(=O)c2cc(NS(=O)(=O)c3ccccc3C)ccc2OC[C@@H](C)N(S(=O)(=O)c2ccccc2)C[C@H]1C	1.12 ± 0.058
N#C[C@@H]1[C@@H](c2ccccc2-c2ccccc2F)[C@@H](CO)N1C(=O)c1ccccn1	1.1 ± 0.17
CCC(=O)N1[C@H](CO)[C@H](c2ccccc2)C12CN(C(=O)c1ccncc1)C2	1.15 ± 0.098
C[C@H](CO)N1C[C@H](C)[C@H](CN(C)S(=O)(=O)c2cn(C)cn2)OCc2cnnn2CCCC1=O	1.01 ± 0.029
COc1ccc(S(=O)(=O)N(C)C[C@H]2Oc3ccc(NC(=O)Nc4ccc(C(F)(F)F)cc4)cc3C(=O)N([C@H](C)CO)C[C@H]2C)cc1	1.03 ± 0.16
C[C@H](CO)N1C[C@H](C)[C@H](CN(C)C(=O)CCC(F)(F)F)OCCCC[C@H](C)Oc2ccc(NC(=O)C3CCCCC3)cc2C1=O	1.1 ± 0.15
CN(C)CC(=O)N1[C@H](CO)[C@H](c2ccccc2)C12CN(C(=O)c1ccc(F)cc1)C2	1.11 ± 0.06
COc1ccc(CN(C)C[C@@H]2OCCCC[C@@H](C)Oc3ccc(NC(=O)C4CCCCC4)cc3C(=O)N([C@H](C)CO)C[C@H]2C)cc1	1.03 ± 0.042
O=C(Cc1ccncc1)Nc1ccc2c(c1)[C@H]1C[C@@H](CC(=O)N3CCc4ccccc4C3)O[C@@H](CO)[C@H]1O2	1.06 ± 0.04
COc1ccc(C(=O)Nc2ccc3c(c2)C(=O)N(C)[C@@H]2CC[C@@H](CC(=O)NCC4CC4)O[C@H]2CO3)cc1	0.932 ± 0.15
C/C=C/c1ccc2c(c1)O[C@@H](CN(C)C(=O)Nc1ccc(OC)cc1)[C@H](C)CN([C@@H](C)CO)S2(=O)=O	0.987 ± 0.059
Fc1cccc(-c2ccc([C@H]3[C@H]4CNC[C@@H]3N4Cc3cncnc3)cc2)c1	0.985 ± 0.08
COCC(=O)Nc1ccc2c(c1)C(=O)N(C)[C@H]1CC[C@@H](CC(=O)NCCCN(C)C)O[C@@H]1CO2	0.998 ± 0.096
COc1ccc2c3c([C@H](CO)N(C[C@]33CCN(CC4CCCCC4)CC3)S(C)(=O)=O)n(C)c2c1	0.902 ± 0.063
CN(C)C(=O)c1cccc(-c2ccccc2[C@H]2[C@@H](CO)N(C(=O)C3CCCCC3)[C@H]2C#N)c1	1.1 ± 0.037
O=C(C[C@H]1C=C[C@H](NC(=O)c2cnccn2)[C@H](CO)O1)NCc1ccccc1F	1.01 ± 0.14
C(=C\c1ccc([C@H]2[C@@H]3CN(Cc4nccs4)C[C@H]2N3)cc1)/c1ccccc1	0.984 ± 0.06
CCC(=O)N1C[C@H]2[C@@H](c3ccccc31)[C@@H](CO)N2Cc1ccc(F)cc1	1.04 ± 0.036
CC(C)NC(=O)N(C)C[C@H]1Oc2ccc(NC(=O)c3ccncc3)cc2C(=O)N([C@H](C)CO)C[C@@H]1C	0.939 ± 0.082
O=C(Cc1ccncc1)NCC[C@@H]1CC[C@@H](NS(=O)(=O)c2ccccc2Cl)[C@@H](CO)O1	1.08 ± 0.081
CC(C)CC#Cc1ccc([C@H]2[C@@H](CO)N3C(=O)CN(C(=O)c4cccc(F)c4)C[C@@H]23)cc1	1.09 ± 0.059
N#C[C@H]1[C@@H](c2ccccc2)[C@H](CO)N1S(=O)(=O)c1cccc(F)c1	1.1 ± 0.034
CO[C@H]1CN(C)C(=O)c2cc(NC(=O)Nc3cc(F)ccc3F)ccc2OC[C@H](C)NC[C@@H]1C	1.03 ± 0.053
COCC(=O)NC[C@@H]1[C@H](c2ccccc2)[C@H](CO)N1C(=O)c1ccccc1	0.986 ± 0.17

Structure (SMILES)	viability index
CNC[C@H]1Oc2ccc(NC(=O)NC3CCCCC3)cc2CC(=O)N([C@H](C)CO)C[C@H]1C	0.964 ± 0.085
COC(=O)C[C@@H]1C[C@@H]2c3cc(NC(=O)C4CCOCC4)ccc3O[C@@H]2[C@H](CO)O1	1.11 ± 0.046
O=C(NCC[C@H]1CC[C@H](NC(=O)c2ccncc2)[C@H](CO)O1)Nc1ccc(Cl)cc1	1.12 ± 0.081
CCCNC(=O)C[C@@H]1CC[C@H]2[C@H](COc3ccc(NC(=O)CC)cc3C(=O)N2C)O1	1.12 ± 0.067
CCCC(=O)N1C[C@]2(CN(C2)C(=O)NC(C)C)c2c([nH]c3cc(OC)ccc23)[C@H]1CO	0.984 ± 0.16
O=C(C1CCOCC1)N1C[C@@H]2[C@H](c3ccccc31)[C@H](CO)N2C(=O)Cc1ccccn1	1.06 ± 0.039
Cn1cnc(S(=O)(=O)N2C[C@@H](O)COC[C@@H]3O[C@@H](CC(=O)NCc4cccc(F)c4)CC[C@H]32)c1	1.01 ± 0.021
C[C@H]1CN([C@@H](C)CO)C(=O)c2c(c3ccccc3n2C)-c2ccccc2CO[C@@H]1CN(C)C(=O)Nc1ccc2c(c1)OCO2	0.961 ± 0.062
CCCN1C[C@@H](C)[C@@H](OC)CN(C)C(=O)c2cc(NC(=O)C3CCC3)ccc2OC[C@@H]1C	1.02 ± 0.05
C[C@H]1CN([C@@H](C)CO)C(=O)c2ccccc2-c2ccccc2CO[C@@H]1CN(C)C(=O)CCC(F)(F)F	1.03 ± 0.064
COCC(=O)Nc1ccc2c(c1)[C@H]1C[C@H](CC(=O)NCc3ccc4c(c3)OCO4)O[C@@H](CO)[C@H]1O2	1.05 ± 0.012
O=C(C[C@@H]1CC[C@@H]2[C@H](COC[C@H](O)CN2C(=O)c2cnccn2)O1)N1CCN(c2ccccc2)CC1	1.09 ± 0.1
O=C(C[C@@H]1CC[C@@H]2NC[C@@H](O)COC[C@H]2O1)NCc1ccc2c(c1)OCO2	1.02 ± 0.052
C[C@@H]1CN([C@H](C)CO)C(=O)c2cc(NC(=O)C3CC3)ccc2O[C@H]1CN(C)S(=O)(=O)c1ccccc1	0.9611 ± 0.002
Cc1ccccc1-c1ccccc1[C@H]1[C@@H](CO)N(C(=O)c2ccc(F)cc2)[C@H]1C#N	1.05 ± 0.062
Cc1ccc(S(=O)(=O)N2C[C@@H]3[C@H](c4ccccc42)[C@@H](CO)N3Cc2cccnc2)cc1	1.04 ± 0.049
O=C(NCCc1ccncc1)[C@H]1[C@H](CO)[C@H]2Cn3c(cccc3=O)[C@@H]1N2Cc1ccccc1F	1.04 ± 0.027
C[C@@H]1CN([C@H](C)CO)C(=O)c2cc(C3=CCCC3)cnc2O[C@H]1CN(C)C(=O)Nc1ccc(C(F)(F)F)cc1	1.04 ± 0.015
COc1cccc(S(=O)(=O)N(C)C[C@@H]2OCc3ccccc3-c3c(n(C)c4ccccc34)C(=O)N([C@@H](C)CO)C[C@@H]2C)c1	0.964 ± 0.046
COc1ccc(C[C@H]2CCc3cnnn3COCCNC2=O)cc1	1.101 ± 0.0095
C[C@H]1CN([C@@H](C)CO)C(=O)c2c(c3ccccc3n2C)-c2ccccc2CO[C@H]1CN(C)C(=O)Nc1ccccc1C(F)(F)F	0.914 ± 0.034
CN(C)C(=O)c1ccc(-c2ccc3c(c2)[C@@H]2[C@@H](CCN2C(=O)C2CCCC2)[C@@H](CO)N3C)cc1	1.08 ± 0.12
C/C=C/c1ccc([C@@H]2[C@H]3CN(C(=O)c4ccncc4)CC(=O)N3[C@H]2CO)cc1	0.92 ± 0.062
